The text below walks through data of patent publication US20140349994A1, “Novel 2-Amino-4,5,6,8-Tetrahydropyrazolo[3,4-b]Thiazolo [4,5-d]Azepine Derivatives and Their Use as Allosteric Modulators of Metabotropic Glutamate Receptors” (Addex Pharma S.A., priority 2012, published 2014).

Like-named read-outs stand apart in the source and are kept apart here. Entries with a single value are a further part of the results. Where only a bound is given, the exact number is not on record here.

With `Cc1nc(CN2CCc3sc(Nc4ncc(F)cn4)nc3-c3cn[nH]c32)no1` [Compound 1-138, N-(5-Fluoropyrimidin-2-yl)-6-((5-methyl-1,2,4-oxadiazol-3-yl)methyl)-4,5,6,8-tetrahydropyrazolo[3,4-b]thiazolo[4,5-d]azepin-2-amine], the melting point is, setting by setting: (free base) 245 °C; (hydrochloride salt (1.2 eq HCl)) more than 320 °C.
As for `Fc1cnc(Nc2nc3c(s2)CCN(CCCN2CCOCC2)c2[nH]ncc2-3)nc1` [Compound 1-140, N-(5-Fluoropyrimidin-2-yl)-6-(3-morpholinopropyl)-4,5,6,8-tetrahydropyrazolo[3,4-b]thiazolo[4,5-d]azepin-2-amine], the melting point (dihydrochloride dihydrate salt) fell in the range of 257 to 259 °C and the melting point (free base) was found to be 232 °C.
